Results from the antibiotic and cytotoxicity screens of Wong et al. (2023).
Some of the results follow.

Key:
HSkMC = human skeletal muscle cells; experiment: cytotoxicity call (relative viability < 0.9); conditions: 10 µM
HepG2 = experiment: cytotoxicity call (relative viability < 0.9); conditions: 10 µM
S. aureus RN4220 = experiment: growth inhibition call (relative growth <= 0.2); conditions: 50 µM

Compound	cytotoxicity call (HSkMC)	cytotoxicity call (HepG2)	growth inhibition call (S. aureus RN4220)
COc1ccccc1CN(C)C[C@@H]1OCc2ccccc2-c2c(n(C)c3ccccc23)C(=O)N([C@@H](C)CO)C[C@H]1C	inactive	inactive	inactive
C[C@H](CO)N1C[C@H](C)[C@@H](CN(C)C(=O)Cc2ccccc2)Oc2cc(-c3cncnc3)ccc2S1(=O)=O	inactive	inactive	inactive
Cn1cnc(S(=O)(=O)N2C[C@H](O)COC[C@H]3O[C@@H](CC(=O)NCc4cccc(F)c4)CC[C@@H]32)c1	inactive	inactive	inactive
C[C@H](CO)N1C[C@H](C)[C@@H](CN(C)Cc2ccc(C(=O)Nc3ccccc3N)cc2)Oc2ccc(NS(=O)(=O)c3ccc(Cl)cc3)cc2CC1=O	inactive	inactive	inactive
COc1ccc(S(=O)(=O)N(C)C[C@@H]2Oc3cc(C4=CCCC4)ccc3S(=O)(=O)N([C@@H](C)CO)C[C@@H]2C)cc1	inactive	inactive	inactive
COc1ccc2cc(CCC(C)=O)ccc2c1	inactive	inactive	inactive
N=C(C[n+]1ccccc1)NO	inactive	active	inactive
C[C@H](CO)N1C[C@H](C)[C@H](CN(C)C(=O)Nc2ccccc2)Oc2ccc(NS(C)(=O)=O)cc2CC1=O	inactive	inactive	inactive
Cc1ccc(S(=O)(=O)N(C)C[C@H]2Oc3ccc(NS(=O)(=O)c4cccs4)cc3CC(=O)N([C@@H](C)CO)C[C@H]2C)cc1	inactive	inactive	inactive
Cc1ccccc1S(=O)(=O)N1C[C@H](O)COC[C@H]2O[C@H](CC(=O)NCc3ccccc3Cl)CC[C@@H]21	inactive	inactive	inactive
COc1ccc(NC(=O)N(C)C[C@H]2Oc3c(NC(=O)C4CC4)cccc3C(=O)N([C@H](C)CO)C[C@@H]2C)cc1	inactive	inactive	inactive
C[C@@H]1CCCCO[C@H](CN(C)C(=O)C2CCCCC2)[C@@H](C)CN([C@@H](C)CO)C(=O)c2cc(NS(=O)(=O)c3cccs3)ccc2O1	inactive	inactive	inactive
C[C@@H]1CN([C@@H](C)CO)C(=O)Cc2cc(NC(=O)Cn3cnnn3)ccc2O[C@H]1CN(C)S(=O)(=O)c1ccc(F)cc1	inactive	inactive	inactive
CN1C(=O)c2cc(NC(=O)Cc3cccs3)ccc2OC[C@H]2O[C@@H](CC(=O)NCCCN3CCOCC3)CC[C@H]21	inactive	inactive	inactive
C[C@@H]1CN([C@@H](C)CO)C(=O)c2cc(NS(=O)(=O)c3cccs3)ccc2O[C@H]1CN(C)Cc1ccc(-c2ccccc2)cc1	inactive	inactive	inactive
CC(C)C[C@@H](N)C(=O)NC1CCN(C(=O)C2CCCC2)CC1	inactive	inactive	inactive
COc1ccccc1NC(=O)N(C)C[C@@H]1Oc2ncc(C#CC(C)C)cc2C(=O)N([C@@H](C)CO)C[C@H]1C	inactive	inactive	inactive
C[C@H]1CCCCO[C@H](CN(C)C(=O)CCC(F)(F)F)[C@@H](C)CN([C@@H](C)CO)C(=O)c2cc(NS(=O)(=O)c3ccc(Cl)cc3)ccc2O1	inactive	inactive	inactive
COCC#Cc1ccc2c(c1)O[C@H](CN(C)C(=O)c1ccccc1F)[C@@H](C)CN([C@@H](C)CO)S2(=O)=O	inactive	inactive	inactive
C[C@@H]1CN([C@H](C)CO)C(=O)c2cc(C#Cc3ccccc3F)cnc2O[C@@H]1CN(C)C(=O)Cc1cccnc1	inactive	inactive	inactive
COCC#Cc1ccc2c(c1)O[C@H](CN(C)C(=O)C1CCOCC1)[C@@H](C)CN([C@@H](C)CO)S2(=O)=O	inactive	inactive	inactive
Cc1n[nH]c(=S)n1N	inactive	inactive	inactive
COc1ccc(S(=O)(=O)N(C)C[C@H]2OCCCC[C@H](C)Oc3ccc(NS(=O)(=O)c4ccc(Cl)cc4)cc3C(=O)N([C@H](C)CO)C[C@H]2C)cc1	inactive	active	inactive
C[C@H]1CN([C@@H](C)CO)C(=O)c2c(c3ccccc3n2C)-c2ccccc2CO[C@@H]1CN(C)C(=O)Nc1ccccc1	inactive	inactive	inactive
COc1ccc(S(=O)(=O)N(C)C[C@@H]2Oc3ccc(NC(=O)Nc4c(C)noc4C)cc3CC(=O)N([C@H](C)CO)C[C@H]2C)cc1	inactive	inactive	inactive
CC(C)NC(=O)Nc1ccc2c(c1)CC(=O)N([C@H](C)CO)C[C@@H](C)[C@H](CN(C)Cc1ccc(C(=O)O)cc1)O2	inactive	inactive	inactive
